Assay results taken from the supplement of paper PMC4604168 (melanoma cell lines).
The list shows a part of the results. Most values come without repeats; read them as rough.

Each molecule was assayed on RPMI7951 (assay: cell count relative to DMSO control; melanoma cells; higher = more viable cells). Details: library dose: standard library concentration; 72 h.
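Note: cells treated in 1,536-well plates, then fixed and DAPI-stained, with nuclei counted from automated high-throughput microscope images.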

SMILES | cell count [%]
NC(=O)c1ccc(N(C(N)=O)c2c(F)cccc2F)nc1-c1ccc(F)cc1F + O=C1NC(=O)/C(=C/c2ccc(-c3ccc(F)cc3O)o2)S1 [AS252424] (first compound 2 µM, partner dose 5 µM) | 81.2
NC(=O)c1ccc(N(C(N)=O)c2c(F)cccc2F)nc1-c1ccc(F)cc1F + COc1ccc(COc2ccc(Cc3cnc(N)nc3N)cc2OC)cc1 [GW2580] (first compound 2 µM, partner dose 5 µM) | 77.5
NC(=O)c1ccc(N(C(N)=O)c2c(F)cccc2F)nc1-c1ccc(F)cc1F + O=C(O)C(=O)Nc1sc2c(c1C(=O)O)CCNC2 [TCS401] (first compound 2 µM, partner dose 8.33333 µM) | 88.4
CC(C)(C)c1cnc(CSc2cnc(NC(=O)C3CCNCC3)s2)o1 + CC(C)CCN1c2nc(Nc3cc(F)c(O)c(F)c3)ncc2N(C)C(=O)C1C [BID1870] (first compound 0.05 µM, partner dose 1 µM) | 29.9
COc1cc2c(Oc3ccc4[nH]c(C)cc4c3F)ncnc2cc1OCCCN1CCCC1 [cediranib] + COc1ccc(-c2ccc3c(N4CCOCC4)nc(N4C[C@@H](C)O[C@@H](C)C4)nc3n2)cc1CO [KU0063794] (first compound 2 µM, partner dose 0.1 µM) | 88.8
CCc1ccc(CCOc2ccc(CC3SC(=O)NC3=O)cc2)nc1 (stereo unspecified) [pioglitazone] + Cn1cc(/C=C2\C(=O)Nc3cccnc32)c2ccccc21 [GW441756] (first compound 10 µM, partner dose 2 µM) | 28.6
